The other results are listed elsewhere or left out. At the low end of the ranking the order means little.

In this assay the target is T1, GST-Rok (full length) (UniProt O34857).
T1 sequence: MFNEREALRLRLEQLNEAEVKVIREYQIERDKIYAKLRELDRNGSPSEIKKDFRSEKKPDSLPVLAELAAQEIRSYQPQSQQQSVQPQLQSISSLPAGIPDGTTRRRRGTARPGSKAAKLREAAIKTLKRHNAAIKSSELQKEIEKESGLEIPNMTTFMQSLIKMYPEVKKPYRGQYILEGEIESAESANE
Briefly: protein binding microarray.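 Also: rank score from −0.5 (least bound) to 0.5 (best bound).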 As to conditions: Rok is a gene silencer of Bacillus subtilis; high values mean tight binding; most listed sequences are background and not binding sites; double strand, one strand shown.
ACTTACTC had a binding signal of -0.0454 E-score.

The sequence ACGAGGAG returned a binding signal of -0.25 E-score. The result for CACCCACG reads -0.0687 E-score; that for CGATCGTA, 0.205 E-score; that for CGTAAACA, 0.00287 E-score. In the case of CCCCAGAG, the binding signal was -0.367 E-score. The result for TCAGTAAA reads 0.156 E-score; that for AGGAGGTA, -0.0728 E-score; that for ACTCCGAC, -0.0824 E-score. In the case of GATCGAGC it was -0.00576 E-score; in that of CAATCATA, 0.249 E-score; in that of CTCGATAA, -0.00299 E-score.

Consider AACGGAAC, for which the binding signal was -0.029 E-score. Consider CAGTCTAG, for which the binding signal was -0.11 E-score. CCTGATAC yielded a binding signal of 0.0473 E-score. CAAGGAAC showed a binding signal of -0.117 E-score.

For AAAAACAA, the binding signal is 0.0979 E-score. The result for CAGAGGGG reads -0.339 E-score; that for CTCAGACA, -0.0291 E-score.

AATGTAGC returned a binding signal of 0.221 E-score.

AACTGGGT had a binding signal of -0.0493 E-score. As to GGGTGCGA, the binding signal is -0.193 E-score. In the case of AAGGTGAT it was 0.0467 E-score. The sequence CGGATGGC returned a binding signal of -0.25 E-score. In the case of ACTGTAGA it was 0.373 E-score; in that of AGTACCCC, -0.229 E-score. Sequence ATACTCAC showed a binding signal of 0.138 E-score. AATAACAA registered a binding signal of 0.222 E-score. The result for ACATGTCA reads 0.0484 E-score. Sequence TCATGAGA yielded a binding signal of 0.103 E-score.

Consider ACAGCAAT, for which the binding signal is 0.231 E-score.

In turn, CTCCGAAA showed a binding signal of -0.0499 E-score. In turn, GAATGCTC showed a binding signal of -0.0772 E-score. The result for CCACACAG reads -0.261 E-score; that for AATCTAGG, 0.231 E-score; that for GGTCATTA, -0.136 E-score.

ACGCCGCT returned a binding signal of -0.055 E-score. With CAACTATG, the binding signal is 0.196 E-score. CGCGGTCA registered a binding signal of -0.241 E-score. As for GTACTTCA, the binding signal was 0.225 E-score. In the case of TCGTGACA it was -0.14 E-score; in that of ATCTTCTG, 0.117 E-score.

ATCAGACC registered a binding signal of -0.137 E-score. Regarding AGAATGGA, the binding signal is -0.0221 E-score. Consider GACTTCGC, for which the binding signal was -0.0491 E-score. Consider CCTACATC, for which the binding signal is 0.0941 E-score. The result for ACTGCGCA reads -0.00651 E-score; that for CAGCGTGC, -0.252 E-score; that for ACTCGGTG, 0.0069 E-score. In the case of CACGAACC it was -0.0697 E-score; in that of CGCGCGGC, -0.36 E-score. AAGGAACG returned a binding signal of -0.179 E-score. In the case of ACGCTACT it was 0.205 E-score. CAGGCGAA registered a binding signal of -0.183 E-score.

For GGTGAATA, the binding signal amounted to 0.0473 E-score. In the case of TCGAATAA it was 0.0382 E-score; in that of ATTCTCTA, 0.177 E-score. The result for GATCCATA reads -0.0316 E-score; that for CGGTCTTA, 0.0367 E-score; that for CCCTCAAC, -0.112 E-score. Consider TGCCCCAA, for which the binding signal was -0.187 E-score. In the case of GGTTAGTA it was 0.0365 E-score. For GAATCGGA, the binding signal was -0.0832 E-score. The result for CACATCCG reads -0.0475 E-score. The sequence CCCGAACC returned a binding signal of -0.294 E-score. In turn, GGAATAAC yielded a binding signal of -0.0551 E-score. In the case of ACATGCGG it was 0.0454 E-score; in that of AGAAGTAA, 0.164 E-score; in that of AACCGGCG, -0.126 E-score. On to TAAAACAA, for which the binding signal was 0.203 E-score. In the case of ATAGTGTG it was 0.134 E-score. TAATCACA showed a binding signal of 0.134 E-score. The result for AATTATAC reads 0.377 E-score; that for CCCCCCGA, -0.493 E-score; that for CCGGAAGC, -0.291 E-score. CGAAATAG yielded a binding signal of 0.000759 E-score. GGAGGGAC displayed a binding signal of -0.384 E-score.

The sequence ACAGGTCG displayed a binding signal of -0.197 E-score. In the case of ACCAAGAC it was -0.0363 E-score; in that of CACGGACA, -0.383 E-score. In turn, GACCGAGA gave a binding signal of -0.0507 E-score. Turning to ACAGTTGA, the binding signal stood at 0.166 E-score. The result for ATCGGGAC reads -0.0956 E-score; that for CCGTGGAG, -0.0755 E-score. As to ATTTATAC, the binding signal turned out to be 0.356 E-score. In the case of TAACGTAA it was 0.0669 E-score; in that of GCTCTTAA, -0.116 E-score. The result for TCTTCCAA reads -0.105 E-score.

CGGATGTA showed a binding signal of 0.0664 E-score. Sequence CACGTTTC returned a binding signal of 0.0138 E-score. The result for GAGCAGAA reads -0.113 E-score; that for ACTCCATC, 0.0464 E-score. With ATCGATTA, the binding signal amounted to 0.0063 E-score. As to AGGCTCGC, the binding signal is -0.328 E-score.

The values above are taken from paper PMC6212790.
